Reference: article PMC7083877
Results are given in words; binding and its absence hold for the method and conditions named. Binding seen in cells or lysates may run through a third protein. Some binding calls cover weakened binding; strength is not graded here. For some of these results: Where a sequence is shown, tags or fusion partners need not be part of it. Blank lines part the entries; values can stand above or below the binder they belong to.

Protein sequences, listed by entry. Tags and fused reporters are not part of them.
UniProt Q00987: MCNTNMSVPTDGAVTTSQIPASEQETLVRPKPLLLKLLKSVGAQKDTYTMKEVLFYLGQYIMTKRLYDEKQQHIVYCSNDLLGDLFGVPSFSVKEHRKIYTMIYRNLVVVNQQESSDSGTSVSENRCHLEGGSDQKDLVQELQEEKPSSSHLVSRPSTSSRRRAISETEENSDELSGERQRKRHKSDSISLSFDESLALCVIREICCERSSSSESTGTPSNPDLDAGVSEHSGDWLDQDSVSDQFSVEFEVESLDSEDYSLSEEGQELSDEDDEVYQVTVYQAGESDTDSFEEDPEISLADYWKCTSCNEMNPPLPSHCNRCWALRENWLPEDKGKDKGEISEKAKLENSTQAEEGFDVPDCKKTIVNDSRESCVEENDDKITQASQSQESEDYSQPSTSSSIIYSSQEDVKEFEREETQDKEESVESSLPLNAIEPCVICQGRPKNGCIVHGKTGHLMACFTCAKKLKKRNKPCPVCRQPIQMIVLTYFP

Columns and labels:
[1] = biological target: endogenous p53 (human (endogenous in HCT116)) (UniProt P04637); assay: proximity ligation; Duolink In Situ Red kit; methanol-fixed cells treated with Act. D; anti-SBDS/mouse or anti-MDM2/mouse with anti-p53/rabbit; confocal microscopy
[2] = biological target: endogenous p53 (human (endogenous in HCT116)) (UniProt P04637); assay: co-IP; endogenous proteins; HCT116 p53+/+ cells treated with Act. D; co-IP-IB
[3] = biological target: endogenous p53 (human (endogenous in HCT116)) (UniProt P04637); assay: co-IP; endogenous proteins; HCT116 p53+/+ cells without Act. D (unstressed); co-IP-IB
[4] = biological target: endogenous p53 (human (endogenous in HCT116)) (UniProt P04637); assay: proximity ligation; Duolink In Situ Red kit; methanol-fixed cells without Act. D treatment; anti-SBDS/mouse with anti-p53/rabbit
MDM2 (co-IP of Fig. S5) = MDM2 (co-IP of Fig. S5) (UniProt Q00987); assay: co-IP; co-IP-IB assays of Fig. S5; constructs and cells not shown
[5] = biological target: p53 (exogenous, from the p53 plasmid) (UniProt P04637); assay: co-IP; H1299 cells transfected with the indicated plasmids; IP with anti-p53 (Fig. 6a) or anti-Flag (Fig. 6b), IB
[6] = biological target: Flag-p53 fragment, amino acids 101-300 (UniProt P04637); assay: co-IP; cells transfected with ectopic SBDS and Flag-p53 fragments; co-IP-IB
[7] = biological target: Flag-p53 fragment, amino acids 101-393 (UniProt P04637); assay: as above
[8] = biological target: Flag-p53 fragment, amino acids 301-393 (UniProt P04637); assay: as above
[9] = biological target: Flag-p53 fragment, amino acids 1-100 (N-terminal transactivation (TA) domain) (UniProt P04637); assay: as above

binding [1]: binds
binding [2]: binds
binding [3]: binds weakly
B1: endogenous SBDS (protein, UniProt Q9Y3A5 1-250)
chain: MSIFTPTNQIRLTNVAVVRMKRAGKRFEIACYKNKVVGWRSGVEKDLDEVLQTHSVFVNVSKGQVAKKEDLISAFGTDDQTEICKQILTKGEVQVSDKERHTQLEQMFRDIATIVADKCVNPETKRPYTVILIERAMKDIHYSVKTNKSTKQQALEVIKQLKEKMKIERAHMRLRFILPVNEGKKLKEKLKPLIKVIESEDYGQQLEIVCLIDPGCFREIDELIKKETKGKGSLEVLNLKDVEEGDEKFE
binding [4]: no binding (condition: without Act. D treatment)

binding (MDM2 (co-IP of Fig. S5)): binds weakly
B2: SBDS (co-IP with MDM2, Fig. S5) (protein, UniProt Q9Y3A5 1-250)
chain: B1 chain

binding [5]: binds
B3: Flag-SBDS (Flag-tagged pEnter-SBDS) (protein, UniProt Q9Y3A5 1-250)
chain: B1 chain

binding [6]: no binding
binding [7]: no binding
binding [8]: no binding
binding [9]: binds
B4: ectopic SBDS (co-expressed with the Flag-p53 fragments, Fig. 6d) (protein, UniProt Q9Y3A5 1-250)
chain: B1 chain
